# In all, about 310,000 compounds went through this assay and about 18,000 (5.8%) were called active. The inconclusive results got no clear call from the source; some entries with a clear call stand among them for comparison. Calls come from the whole dose curve; as a rule, active = well fitted inhibition curve with a large enough effect; inconclusive = small, poorly fitted or top-dose-only effect, or another doubt; inactive = no such curve, though single readings can be large or run the other way. Potencies of inconclusive entries are left out as doubtful fits.
# Assay: Primary qHTS for delayed death inhibitors of the malarial parasite plastid, 48 hour incubation
# Details: P. falciparum luciferase growth in erythrocytes; series mostly up to 28.7 µM; activity change, negative = inhibition: at the top concentration
# In short: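 Growth was read as firefly luciferase luminescence after a 48 h, 37 C, 5% CO2 exposure of compounds to reporter-bearing P. falciparum cultures (0.1% parasitemia, 2% hematocrit final) in Albumax-supplemented RPMI 1640.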
# % is set by controls: 0 for no effect and ±100 for the full control effect; potency is the fitted concentration of half-maximal effect; tags give direction and shape of the fitted curve.
SMILES,Potency,"activity change, negative = inhibition"
O=C(N/N=C\c1cccs1)c1sccc1-n1cccc1,"inconclusive [inhibitor, single point]",–
CC1CC(OC(=O)C2CCN(S(=O)(=O)c3ccc(F)cc3)CC2)C(=O)O1 (centres undefined),"inconclusive [inhibitor, partial curve, poor fit]",–
CCCN(CC(=O)Nc1ccccc1C)C(=O)CCCc1c[nH]c2ccccc12,"inconclusive [inhibitor, single point]",–
CC1(c2ccccc2)NC(=O)N(CC(=O)Nc2cc(Cl)ccc2N2CCOCC2)C1=O (centres undefined),"inconclusive [inhibitor, single point]",–
CCCN1C2CCCC1CC(NC(=S)Nc1cccc(C)c1)C2 (centres undefined),"inconclusive [inhibitor, partial curve, poor fit]",–
CCOC(=O)/C(=C/Nc1ccc(F)c(F)c1)[N+](=O)[O-],–,inactive: 2.11%
O=C(Nc1ccccc1)Nc1ccno1,"inconclusive [inhibitor, single point]",–
CC(C)Oc1ccc(C(CC(=O)N2CCOCC2)C(C)C)cc1 (centres undefined),–,inactive: -14.2%
Fc1ccc(N2Cc3ccsc3C=N2)cc1,"inconclusive [inhibitor, single point]",–
COc1ccc2ccccc2c1CNCCN1CCOCC1,"inconclusive [inhibitor, partial curve, poor fit]",–
C=CCn1c(O)c(N=NC(=S)Nc2ccc(OC)c(Cl)c2)c2ccccc21,active: 3.7 µM,–
COc1cc(C(=O)OCC(=O)NCCCc2ccccc2)ccc1OCC(C)C,"inconclusive [inhibitor, partial curve]",–
Cc1cc(C)n(-c2nc(Nc3ccccc3C(F)(F)F)nc(-n3nc(C)cc3C)n2)n1,active: 4.15 µM,–
Nc1nc(SCC(=O)Nc2ccc(Cl)c(S(=O)(=O)N3CCOCC3)c2)n[nH]1,"inconclusive [inhibitor, single point]",–
CCN(CC(=O)Nc1c(F)cccc1F)C(=O)c1ccc(N2CCOCC2)c([N+](=O)[O-])c1,–,inactive: 13.8%
Cc1ccccc1Nc1nc(N)nc(COC(=O)CCNS(=O)(=O)c2ccccc2)n1,active: 11.7 µM,–
COCCN(C(=O)COC(=O)CCS(=O)(=O)c1ccccc1)c1c(N)n(Cc2ccccc2)c(=O)[nH]c1=O,"inconclusive [inhibitor, single point]",–
Nn1c(SCc2ccc(Br)cc2)nnc1-c1ccncc1,–,inactive: 4.15%
CCN(CC)C(=O)COc1coc(CN2CCN(c3ccccc3)CC2)cc1=O,–,inactive: -4.51%
Cc1cc(C)c(S(=O)(=O)N2CCCCC2CCNC(=O)C(=O)NCC2CCCO2)c(C)c1 (centres undefined),"inconclusive [inhibitor, partial curve, poor fit]",–
Cc1ccc(N2CCN(S(=O)(=O)c3c(C)noc3C)CC2C)cc1 (centres undefined),–,inactive: -9.08%
CCNc1c(NS(=O)(=O)c2ccc(C3CCCCC3)cc2)c(=O)oc2ccccc12,"inconclusive [inhibitor, partial curve, poor fit]",–
COc1ccc2c(c1)c(=O)oc1c(C)c(OC(C)C(=O)N[C@@H](Cc3c[nH]c4ccc(O)cc34)C(=O)O)ccc12 (some centres undefined),"inconclusive [inhibitor, partial curve, poor fit]",–

SMILES,Potency,"activity change, negative = inhibition"
O=C(CN1C(=O)CCC1=O)Nc1nc(-c2ccc(Oc3ccccc3)cc2)cs1,–,inactive: 19.3%
COC(=O)C(Cc1ccccc1)NC(=O)CC(C)CC(=O)Nc1ccc(C)cc1 (centres undefined),–,inactive: -12.5%
COc1ccc(NC(=S)NCCN2CCC(C)CC2)cc1Cl,"inconclusive [inhibitor, partial curve]",–
COc1ccc(-c2nc(CS(=O)(=O)CC(=O)NC3CCC(C)CC3)c(C)o2)cc1 (centres undefined),–,inactive: -31.5%
CSc1ccc(C#N)cc1NC(=O)c1ccccc1C,"inconclusive [inhibitor, partial curve, poor fit]",–
CO[C@]1(NC(=O)C2SC(=C(C(N)=O)C(=O)O)S2)C(=O)N2C(C(=O)O)=C(CSc3nnnn3C)CS[C@H]21 (some centres undefined),–,inactive: 1.34% [at 12.8 µM]
COc1ccc(Nc2ccc3c(c2)=NC2(CCCCC2)[N+]=3[O-])cc1,active: 11.7 µM,–
Cc1ccc(NC(=O)CSc2ccccc2)cc1S(=O)(=O)N1CCCCC1,"inconclusive [inhibitor, single point]",–
O=C(Nc1ccc(F)cc1)Nc1ccc(NC(=O)c2ccccc2O)cc1,active: 11.7 µM,–
O=C(CSc1nnc(-c2ccncc2)n1-c1ccccc1Cl)Nc1ccc(C(=O)O)cc1,–,inactive: 9.72%
CCCn1nnc2ccccc2c1=O,–,inactive: 36.6%
Cc1cccc(Cl)c1NC(=S)N1CCN(c2ccc([N+](=O)[O-])cn2)CC1,active: 1.65 µM,–
COc1cc(C(=O)NCC(c2ccco2)N2CCCC2)ccc1OCc1ccccc1 (centres undefined),"inconclusive [inhibitor, partial curve]",–
COC(=O)CC1(C(=O)OC)Oc2ccc(Br)cc2C(=O)N1c1cccc(Cl)c1Cl (centres undefined),"inconclusive [inhibitor, single point]",–
COc1ccc(/C=C2\Sc3ccc(C(=O)NCC4CCCO4)cc3N(C)C2=O)cc1 (centres undefined),"inconclusive [inhibitor, single point]",–
CCOC(=O)C1(CCOc2ccccc2)CCN(Cc2ccc(C(=O)OC)cc2)CC1,"inconclusive [inhibitor, partial curve]",–
COC(=O)c1c(-c2ccccc2)csc1NC(=O)c1c(-c2ccccc2)noc1C,active: 13.1 µM,–
CCOC(=O)C1(Cc2ccc(OC)cc2)CCN(C(=O)[C@@H]2CCCN2C(C)=O)CC1,–,inactive: 0.445%
Cc1[nH]c2c(C)cccc2c(=O)c1Br,"inconclusive [inhibitor, full curve]",–
CN=Cc1sc2ccccc2c1O,–,inactive: 6.02%
COc1ccccc1OCCNC(=O)c1cc([N+](=O)[O-])cc([N+](=O)[O-])c1,"inconclusive [inhibitor, partial curve, poor fit]",–
N#C/C(=C/c1ccccc1[N+](=O)[O-])c1nc(C2CC2)cs1,–,inactive: 83.1%
C[N+]1(C2CCC3CCCC2C3O)CCCC1 (centres undefined),"inconclusive [inhibitor, full curve, poor fit]",–

SMILES,Potency,"activity change, negative = inhibition"
O=C(Nc1ccc(S(=O)(=O)Nc2ncccn2)cc1)c1ccc(S(=O)(=O)N2CCCC2)cc1,"inconclusive [inhibitor, single point]",–
CCCCCCCCCCOC(=O)Cn1c(COc2ccccc2)[n+](C)c2ccccc21,"inconclusive [inhibitor, partial curve]",–
COc1ccc(/C=N/n2c(N)nc3ccccc32)cc1OC,"inconclusive [inhibitor, single point]",–
Cc1ccc(NC(=S)N(CCC(C)C)C(C)c2ccncc2)c(Cl)c1 (centres undefined),"inconclusive [inhibitor, single point]",–
CCN(CC)CCn1c2ccccc2c2n[nH]c(=S)nc21,"inconclusive [inhibitor, partial curve, poor fit]",–
CCc1ccc(CN(C)C(=O)CCc2nnc(Cc3cccc(C)c3)o2)nc1,"inconclusive [inhibitor, partial curve, poor fit]",–
CCOc1ccc(N(CC(=O)NC2CCCC2)C(=O)CCC(=O)Nc2ccccn2)cc1,"inconclusive [inhibitor, partial curve, poor fit]",–
ClC(Cl)(Cl)c1ccccc1,–,inactive: 4.79%
CC1=NN(c2ccccc2)C(=O)/C1=C\C=C1/N(C)c2ccccc2C1(C)C,"inconclusive [inhibitor, partial curve]",–
COc1cccc(C(C)NC(=O)Nc2cccc(C(F)(F)F)c2)c1 (centres undefined),"inconclusive [inhibitor, full curve, poor fit]",–
CN(C(=O)COC(=O)C(C)(C)Oc1ccc(Cl)cc1)c1c(N)n(Cc2ccccc2)c(=O)[nH]c1=O,–,inactive: -24.8%
COc1ccccc1-n1c(SCC(=O)Nc2cc(C)on2)nc2c([nH]c3ccccc32)c1=O,–,inactive: -20.6%
O=C(NCCC(=O)N1CCN(Cc2c(F)cccc2Cl)CC1)c1ccc(Cl)cc1,"inconclusive [inhibitor, single point]",–
O=C(NCCc1ccc(F)cc1)c1ccc(S(=O)(=O)N2CCCCC2)cc1,"inconclusive [inhibitor, single point]",–
CCOC(=O)Cc1csc(NS(=O)(=O)c2ccc(C(F)(F)F)cc2)n1,–,inactive: -3.46%
Cc1ccc(S(=O)(=O)Nc2cc(Cl)c(O)cc2C)cc1,–,inactive: 25.5%
CC12CC[C@H]3[C@@H](CCC4(O)C[C@H](O)CCC34/C=N/NC(=O)Cc3ccccc3)C1(O)CCC2C1=CC(=O)OC1 (some centres undefined),"inconclusive [inhibitor, single point]",–
Cc1nn(CC(=O)N2CCCC2)c(=O)c2cc3cc(F)ccc3n12,–,inactive: -2.21%
COc1ccc(S(=O)(=O)NNC(=O)c2cc3cc4ccccc4nc3s2)cc1,"inconclusive [inhibitor, single point]",–
Oc1[nH]c2ccc(Br)cc2c1N=NC(=S)N1CCOCC1,active: 0.828 µM,–
CCCCCCNc1cc(C)oc(=O)c1C(C)=O,"inconclusive [inhibitor, single point]",–
COc1cc2oc(=O)ccc2cc1[C@@H](O)[C@@H]1OC(C)(C)OC1(C)C,"inconclusive [inhibitor, partial curve, poor fit]",–
O=C(NC1CCCC1)C(c1ccsc1)N(CCc1ccccc1)C(=O)Cc1cccs1 (centres undefined),"inconclusive [inhibitor, full curve, poor fit]",–
